In the supplement of paper PMC11383711:
This is one part of the list. Binding of human antibodies (heavy:light variable regions, tested as scFv in one mRNA-display pool) to influenza hemagglutinin, with or without the stem antibody CR9114 bound first. Score = (mean enrichment − median) / interquartile range of that screen; higher = more enriched, 0 = typical non-binder. Active = above the paper's cut-off per screen: stems 28; unblocked H1 Solomon Islands 5, H1 Michigan 3, H3 5, H5 19, H7 2.85, both B 5; blocked 9, 7, H5 10, H7 10, B Phuket 10, B Lee 11.5. Scores are scaled within each screen and are no affinities; replicates correlate at about 0.6 to 0.9, and antibodies rare in the pool are noisier.

B1: W85-2F05 (protein)
chain 1: EVQLVESGGGVVQPGRSLRLSCAASGFSFSSYAMHWVRQAPGKGLEWVAVISYDGSNKYYADSVKGRFTISRDNSKITLFLQMNSLRPEDTAIYYCARTTDYNVYYSGMDVWGQGTTVTVSS
chain 2: QSALTQPASVSGSPGQSITISCTGTSTDIGDYNYVSWYQQHPGRAPKLIIYEVTNRPSGVSNRFSGSKSGYTASLSISGLQAEDEADYYCSSYADGSTPYVFGSATKVT
B2: 051-10-4G03 (protein)
chain 1: EVQLVESGGGLVQPGRSLRLSCTASGFTFGDYAMSWVRQAPGKGLEWVGFIRSKRYGGTTEYAASVKDRFTISRDDSKSIASLQMSSLKRDDTAVYYCTRDLVGATTFFLYGMDVWGQGTTVTVSS
chain 2: DIQMTQSPSSVSASIGDRVTITCRASQDVSTWLAWYQQKPGKAPKLLIYTASSLQSGVPSRFSGSGSGTDFTLTISSLQPEDFATYYCQQANSFPLTFGGGTKVEIK
B3: 042-10-4C06 (protein)
chain 1: EVQLVESGGGLVKPGGSLRLSCEVSGLIFKNAWMTWVRQAPGMGLEWVGRIKSKSEGGTADYGTPVRDRFIISRDDSKNMVYLQMDSLQTEDTAVYYCATIGIDYNSRSGYFSFDYWGQGALVTVSS
chain 2: EIVLTQSPDTLSLSPGERATLFCRASQSVGNSLAWYRQKLGQPPRLLIYDASIRATGIPARFTGSGSGTDFTLTISSLEPEDFAVYYCQQRANWAPFTFGRGTKVEIK
B4: C1-2D03 (protein)
chain 1: VQLVESGGGLVKPGGSLRLSCAASGFTFSNAWMSWVRQAPGKGLEWVGRIQSQHEGGTTDYAAPVKGRFTISRDESKNTLYLQMNSLKTEDTAVYYCTTASNPYNWNGPYFDYWGQGTLVTVSS
chain 2: DIQMTQSPSTLSASVGDRVTITCRASQSIGTWLAWYQQKPGKAPKLLIYKASSLESGVPSRFSGSRSGTEFTLTISSLQPDDFATYYCQQYNVYSPMYTFGQGTKVEIK
B5: AG2-F02 (protein)
chain 1: VQLVESGGGVVQPGRSLSLSCAASGFTFSNYAMHWVRQAPGKGLEWIFHISYDSSNRYSADSVKGRFTLSRDNSKNTLSLQMDSLKVEDTAVYYCARGEVINGPLYYFDYWGHGTLVTVSS
chain 2: EIVLTQSPATLSLSPGERATLSCRASQSVRYFLAWYQQKPGQAPKLLISDASNRATGIPARFSGSGFGTDFTLTIDNLEPDDSAVYYCQQRSTWAHITFGGGTKVEIK
B6: 01.ae.01 (protein)
chain 1: QVQLQQWGAGLLKPSEALSLSCAVYGGSFSDYYWNWIRQPPGKGLEWIGEIDNFGSTKYHPSLKSRVTISVDTSKNQFSLKLTSVTAADTAVYYCARVRRPIVAHYYGLDVWGQGTTVTVSS
chain 2: DIQMTQSPSSLSASIGDRVTITCRASQGISNYLAWYQQRPGKAPKLVIYAASTLQSGVPSRFSGSGSGTYFTLTISSLQPEDFATYYCQQLNTYPRTFGPGTKVDI

The binders below were run against Influenza A H1N1 A/Michigan/45/2015 hemagglutinin ectodomain (assay: mRNA display binding score; higher = more enriched on the antigen). Conditions: antigen blocked with: 2 µM CR9114 IgG.
Experimental: (§1)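 A pool of natively paired antibodies, displayed as scFv on mRNA, was selected once on antigen-coated beads and sequenced before and after; two replicates.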

Row | Binder | mRNA display binding score
1 | B1 | inactive: -0.228
2 | B2 | inactive: -0.207
3 | B3 | inactive: 2.94
4 | B4 | inactive: -0.277
5 | B5 | inactive: -0.216
6 | B6 | inactive: -0.293

Same assay, conditions: antigen blocked with: nothing

Row | Binder | mRNA display binding score
7 | B1 | inactive: -0.166
8 | B2 | inactive: -0.195
9 | B3 | inactive: 0.00948
10 | B4 | inactive: 0.0065
11 | B5 | inactive: 0.972
12 | B6 | inactive: -0.617

These binders were tested against Influenza A H1N1 A/Solomon Islands/3/2006 hemagglutinin ectodomain in the same assay as above. Conditions: antigen blocked with: 2 µM CR9114 IgG.
Experimental: as §1

Row | Binder | mRNA display binding score
13 | B1 | inactive: -0.283
14 | B2 | inactive: 0.456
15 | B3 | inactive: -0.216
16 | B4 | inactive: -0.174
17 | B5 | inactive: 1.15
18 | B6 | inactive: -0.408

Same assay, conditions: antigen blocked with: nothing

Row | Binder | mRNA display binding score
19 | B1 | inactive: 0.664
20 | B2 | inactive: -0.524
21 | B3 | inactive: -0.336
22 | B4 | inactive: 1.1
23 | B5 | inactive: 0.869
24 | B6 | inactive: -0.111

The binders below were run against Influenza A H3N2 A/Singapore/INFIMH-16-0019/2016 hemagglutinin ectodomain in the same assay as above. Conditions: antigen blocked with: nothing.
Experimental: as §1

Row | Binder | mRNA display binding score
25 | B1 | inactive: -0.437
26 | B2 | inactive: -0.401
27 | B3 | inactive: -0.529
28 | B4 | inactive: 0.0648
29 | B5 | inactive: -0.505
30 | B6 | inactive: -0.303

The binders below were run against Influenza A H5N1 A/Qinghai/1A/2005 hemagglutinin ectodomain in the same assay as above. Conditions: antigen blocked with: 2 µM CR9114 IgG.
Experimental: as §1

Row | Binder | mRNA display binding score
31 | B1 | inactive: 0.474
32 | B2 | inactive: -0.0602
33 | B3 | inactive: -0.678
34 | B4 | inactive: 1.91
35 | B5 | inactive: 1.35
36 | B6 | inactive: -0.704

Same assay, conditions: antigen blocked with: nothing

Row | Binder | mRNA display binding score
37 | B1 | inactive: 1.99
38 | B2 | inactive: -0.0734
39 | B3 | inactive: -0.301
40 | B4 | inactive: 5.7
41 | B5 | inactive: -0.216
42 | B6 | inactive: -0.57

Each binder was assayed against Influenza A H7N9 A/Shanghai/2/2013 hemagglutinin ectodomain in the same assay as above. Conditions: antigen blocked with: 2 µM CR9114 IgG.
Experimental: as §1

Row | Binder | mRNA display binding score
43 | B1 | inactive: -1.24
44 | B2 | inactive: 0.516
45 | B3 | inactive: -0.415
46 | B4 | inactive: -0.412
47 | B5 | inactive: 1.39
48 | B6 | inactive: -0.639

Same assay, conditions: antigen blocked with: nothing

Row | Binder | mRNA display binding score
49 | B1 | inactive: 0.068
50 | B2 | inactive: -0.308
51 | B3 | inactive: -0.35
52 | B4 | inactive: -0.366
53 | B5 | inactive: 1.14
54 | B6 | inactive: -0.47

These binders were tested against Influenza B/Lee/1940 hemagglutinin ectodomain in the same assay as above. Conditions: antigen blocked with: 2 µM CR9114 IgG.
Experimental: as §1

Row | Binder | mRNA display binding score
55 | B1 | inactive: -1.37
56 | B2 | inactive: -0.181
57 | B3 | inactive: -0.224
58 | B4 | inactive: 1.79
59 | B5 | inactive: -0.586
60 | B6 | inactive: -0.59

Same assay, conditions: antigen blocked with: nothing

Row | Binder | mRNA display binding score
61 | B1 | inactive: -0.0419
62 | B2 | inactive: -0.247
63 | B3 | inactive: -0.396
64 | B4 | active: 80.4
65 | B5 | inactive: -0.0409
66 | B6 | inactive: -0.165

These binders were tested against Influenza B/Phuket/3073/2013 hemagglutinin ectodomain in the same assay as above. Conditions: antigen blocked with: 2 µM CR9114 IgG.
Experimental: as §1

Row | Binder | mRNA display binding score
67 | B1 | active: 12.4
68 | B2 | inactive: -0.402
69 | B3 | inactive: -0.175
70 | B4 | active: 23.4
71 | B5 | inactive: -0.0518
72 | B6 | inactive: -0.42

Same assay, conditions: antigen blocked with: nothing

Row | Binder | mRNA display binding score
73 | B1 | active: 11.3
74 | B2 | inactive: -0.18
75 | B3 | inactive: -0.289
76 | B4 | active: 47.6
77 | B5 | inactive: 1.22
78 | B6 | inactive: -0.361
